For this assay, the system named is 276233-004-R-J1-PDC spheroids with HUVEC/MSC, viability. The experiment in a line: Anticancer human tumor 276233-004-R-J1-PDC patient-derived colon adenocarcinoma cell line growth inhibition [TAK]. The settings on record: for viability, T/C: stronger effect = lower value; for IC50: compound alone. The text has this:
Combinatorial screen of targeted agents with TAK-243 and ipatasertib in multi-cell type tumor spheroids
A high-throughput screen of multi-cell type tumor spheroids was designed to identify active combinations of targeted small molecules and TAK-243 or ipatasertib. Complex spheroids include a stromal component modeled by human endothelial cells (HUVEC) and fibroblasts modeled by human mesenchymal stem cells (MSCs). The concentration ranges selected for each drug and investigational agent were based upon clinically achievable concentrations if the clinical Cmax of the agent was known.
Compounds. The drugs and investigational agents: TAK-243 (785004), ipatasertib (767898), everolimus (733504), selumetinib (741078), bortezomib (756655), trametinib (758246), ixazomib (758254), vemurafenib (761431), dabrafenib (764134), sapanisertib (764658), alpelisib (765974), and copanlisib (816437), were obtained from the National Cancer Institute (NCI) Developmental Therapeutics Program Chemical Repository. The FDA-approved anticancer drug set is available from the NCI Developmental Therapeutics Program. […] The stock solutions were prepared in dimethyl sulfoxide (DMSO, Sigma-Aldrich, St. Louis, MO, cat. D2650) at 800-fold the tested concentration and stored at -70 degrees C prior to their use. All drugs and investigational agents were tested over a range starting from a high concentration at or near the clinical Cmax and decreasing in half-log increments. If the clinical Cmax for an agent had not been determined, the highest concentration tested was 10 microM.
NCI60 Cell Culture. NCI60 cell lines were obtained from the NCI Developmental Therapeutics Program Tumor Repository. For each lot of cells, the Repository performed Applied Biosystems AmpFLSTR Identifiler testing with PCR amplification to confirm consistency with the published Identifier STR profile for each cell line. Cells were kept in continuous culture for no more than 20 passages. The optimal seeding densities for each of the cell lines at each time point assessed were determined prior to performing the concentration response studies. Briefly, the NCI60 human tumor lines were grown as monolayers in RPMI 1640 medium supplemented with 10% FBS and 2 mmol/L L-glutamine.
An additional 2 lines were from the NCI60 cell line panel including melanomas, MALME-3M and SK-MEL-2. Pooled donor human umbilical vein endothelial cells (HUVEC, Lonza, cat. CC-2519) and human mesenchymal stem cells (hMSC, Lonza, cat. PT-2501) were purchased from Lonza (Walkersville, MD).
PDMR cell lines were grown in complete medium (DC medium): Dulbecco's modified Eagle's medium (DMEM)/F12 supplemented with 5% fetal bovine serum (FBS), 2 mM L-glutamine, 100 U/mL penicillin and 100 µg/ml streptomycin, 0.4 µg/ml hydrocortisone, 10 ng/ml epidermal growth factor (EGF) recombinant human protein, 24 µg/mL adenine, and 0.1 mg/mL primocin. During culture from frozen stock vials, PDMR cells were cultured in the same medium containing 10 µM Y-27632 (see Table 3). The PDCs were cultured in complete DMEM/F12 media without 10 microM Y-27632 dihydrochloride for at least two passages prior to the screen. The pooled donor HUVEC and hMSC were cultured in endothelial cell growth medium 2 (PromoCell, Heidelberg, Germany, cat. C-22011) and mesenchymal stem cell growth medium 2 (PromoCell, cat. C-28009), respectively. […]
For the pre-screen, cell seeding densities were determined from a titration spanning the range from 5,000 to 313 cells per well. […]

Among the data in PubChem BioAssay AID2060359 (Molecular Pharmacology Branch, DTP, NCI, 2025) are viability, T/C and IC50 values, retold here.

Not every entry of the source has a single result; some have several. Only these are listed. There may be further records. Results that share an entry are repeats (runs, samples, wells, individuals or studies). Marks such as [2022-09] give the month of the run. Additions like (4×) count equal records among those shown.
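Further: spheroids exposed to drugs for seven days before the viability read.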

Broadly, the IC50 is the midpoint of a concentration-inhibition curve. Consider `CC(C)NCC(C(=O)N1CCN(c2ncnc3c2C(C)CC3O)CC1)c1ccc(Cl)cc1` (stereo not given), for which the viability, T/C (compound alone 0.3 µM) is 79.4, 108, 75, 95.5, 85.2, 88.6% [2020-02] and 88.7, 93.8, 104, 85% [2020-03]; the viability, T/C (compound alone 9.49 µM) was 64.8 (2×), 82.6, 77.3, 66.1, 67.7% [2020-02] and 56.5, 70, 73.4, 61.5% [2020-03]; the viability, T/C (compound alone 30 µM) is 51.4, 44.2, 52.3, 52.2, 11.7, 35.5% [2020-02] and 49.8, 63, 58.8, 65.5% [2020-03]. Further, the IC50 (run of 02/28/2020) is 25.7 µM, > 30 µM, 13.3 µM, 16.7 µM.

Turning to `COc1c(OCCCN2CCOCC2)ccc2c3n(c(=NC(=O)c4cnc(N)nc4)nc12)CCN3`, the IC50 was 87.8 nM [2020-02] and > 1 µM [2020-03].
